Values joined by “and” are separate entries in the source; they are usually repeats but may differ in a detail not shown here. Identical values can stand only once. In all, about 5,400 compounds were measured (“IFI”: median about 2, highest 2% from about 22 on). This is one part of the list.
assay: NOVARTIS: Inhibition Frequency Index (IFI) - the number of HTS assays where a compound showed > 50% inhibition/induction, expressed as a percentage of the number of assays in which the compound was tested.; type: functional

SMILES	IFI
CCOC(=O)c1ccc(N(C(=O)CSCC(=O)Nc2cc(C)on2)C(C(=O)NC2CCCCC2)c2ccc(O)c(O)c2)cc1 (configuration not stated)	2.73%
Cc1ccc(Nc2cc(C)nc(NCc3ccccc3)n2)cc1	5.81%
O=C1c2ccccc2-[n+]2ccc3c([nH]c4ccccc43)c21	41.2%
CCN1CCN(Cc2ccc(-c3cc4c(N[C@H](C)c5ccccc5)ncnc4[nH]3)cc2)CC1	6.67%
CCC(=O)Oc1ccccc1-c1nc2ccccn2c1NC(C)(C)CC(C)(C)C	2.83%
CCOC(=O)C1=C(C)NC2=C(C(=O)C(C(=O)OCC)C(c3ccc(OC)cc3)C2)C1c1ccc([N+](=O)[O-])cc1 (configuration not stated)	3.57%
CC(C)N1CCC(N2CCN(Cc3ccc4c(c3)Cc3ccccc3-4)CC2CCO)CC1 (configuration not stated)	8.33%
COc1cc2nc(NCc3ccccn3)n3nc(-c4ccccc4)nc3c2cc1OC	0%
Cc1ccc(CNC(=O)C2CNCC2c2ccc(C(F)(F)F)cc2)cc1 (configuration not stated)	2.82%
Cc1ccn2c(NC(C)(C)CC(C)(C)C)c(-c3ccccc3OC(=O)CCCCl)nc2c1	4.67%
CC(NC(=S)N(Cc1ccco1)Cc1cc2cc3c(cc2[nH]c1=O)OCO3)c1ccccc1 (configuration not stated)	5.79%
COc1ccc(C2CC(=O)C3=C(C2)NC(C)=C(C(=O)OC(C)C)C3c2ccccc2F)cc1OC (configuration not stated)	4.76%
CN(C)c1ccc(C(=C2C=CC(=[N+](C)C)C=C2)c2ccc(N(C)C)cc2)cc1	25.7%
Clc1ccc(Nc2nc3nonc3nc2Nc2ccc(Cl)c(Cl)c2)cc1Cl	7.14%
COc1ccc(C2C(C(=O)NCCN(C)C)c3ccccc3C(=O)N2C2CCCCC2)cc1 (configuration not stated)	0%
CCOC(=O)c1c(NC(=O)CSc2nnc(CNC(=O)c3cccc(C)c3)n2Cc2ccccc2)sc2c1CCCC2	0%
COc1ccc([N+](=O)[O-])cc1C=NNc1nc(Nc2ccc([N+](=O)[O-])cc2)nc(N2CCN(C)CC2)n1	3.95%
CC[n+]1c(C=C2C=CN(C)C=C2)ccc2cc(C)ccc21	7.81%
CCC(C)C(=O)N1CCC(C(=O)Nc2ccc(-c3nc4ccccc4o3)cc2)CC1 (configuration not stated)	0%
CN(CCCNc1ccnc2cc(Cl)ccc12)C(=O)c1cc(C(F)(F)F)cc(C(F)(F)F)c1	2.08%
CCCCCCN(C(=O)c1ccc2ccccc2c1)C(CC)c1nc2ccccc2c(=O)n1-c1cccc(Cl)c1 (configuration not stated)	3.67%
COc1ccccc1CN1CCc2nc(N3CCCCC3)sc2C1	9.72%
Oc1ccccc1-c1nc2sc(-c3ccccc3O)nc2s1	11%
CC(C)(C)C1=NN(CC(=O)NCCc2c[nH]cn2)C(=O)c2cc3ccccc3n2C1	0%
O=C(NCCCCNc1ccnc2cc(Cl)ccc12)c1cccc(C(F)(F)F)c1	0.935%

SMILES	IFI
COc1cnc(-c2ccccn2)nc1NC(C)C	2.5%
CC1CNC2C(C)C3C(CC4C5CCC6CC(N)CCC6(C)C5CCC43C)OC2(O)C1 (configuration not stated)	5.26%
COc1cccc2c1[C@@H](OC)[C@@]13O[C@]1(C2=O)[C@H](O)[C@@H](C)[C@](O)(C(=O)[C@@H]1O[C@H]1C)[C@H]3O	20.4%
COc1ccc(/C=C2\SC(=O)NC2=Nc2ccccc2)cc1	0%
COc1ccccc1/C=C/C1=NC(=C\c2ccc(SC)cc2)/C(=O)O1	0%
Oc1ccc(Cl)cc1C1CC(c2ccc(Cl)cc2)=NC(c2ccc(Cl)cc2)N1 (configuration not stated)	0%
N#Cc1c2c(c(N3CCN(Cc4ccccc4)CC3)n3c1nc1ccccc13)CCC2	1.15%
COc1ccc(C2CC(=O)C3=C(C2)NC(C)=C(C(=O)OC(C)C)C3c2ccc(F)cc2)cc1 (configuration not stated)	3.49%
CCOc1ccc(NC2=C(N3CCOCC3)C(=O)c3ccccc3C2=O)cc1	0%
C=CCn1c(SCC(=O)Nc2ccccc2C)nc2sc(C)cc2c1=O	0%
COc1ccc(OC)c(C(C(=O)NC2CCCC2)N(C(=O)c2snc(C(N)=O)c2N)c2ccccc2OC)c1 (configuration not stated)	6.31%
COc1ccc(-c2nc(-c3ccncc3)cnc2N)cc1OC	0%
O=C(Cc1ccccc1)N1CCOc2c(cc(-c3csc4ccccc34)cc2OCCc2ccccn2)C1	4.04%
FC(F)(F)c1cccc(NC(=S)N2CCSC2c2ccc(Br)cc2)c1 (configuration not stated)	4.54%
Cc1ccc(CN=C(N)Nc2nc(C)cc(C)n2)cc1	7.53%
O=C(NCCCCCCCCCCNC(=O)Nc1ccc(C2=NCCCN2)cc1)Nc1ccc(C2=NCCCN2)cc1	1.83%
O=C(CN1CCCC1)N1N=C(c2cccs2)CC1c1ccc(F)cc1 (configuration not stated)	0%
CSc1nc(N)c2c3c(sc2n1)CCCC3	1.19%
COc1ccc(S(=O)(=O)N2CCC(c3nnc(-c4ccccc4OC)o3)CC2)cc1	0%
CCOC(=O)N1CCN(S(=O)(=O)c2ccc(C(=O)Nc3sc4c(c3C(N)=O)CCN(CC)C4)cc2)CC1	1.21%
CN(CCCNc1ccnc2cc(Cl)ccc12)C(=O)c1ccc(F)cc1	0.935%
c1ccc(CSc2nnc3c(n2)[nH]c2ccccc23)cc1	0% and 3.82%
CCN(CC)c1nc(Nc2cc(C)ccc2C)nc(Nc2ccccc2O)n1	0%
COc1ccc(CN(Cc2cc3cc(OC)c(OC)cc3[nH]c2=O)C(=S)NCCc2ccc(OC)c(OC)c2)cc1	5.41%
COc1cc(NC(=O)Cn2ncc3c(=O)oc4ccccc4c32)cc(OC)c1OC	0%

SMILES	IFI
Cc1ncc([N+](=O)[O-])n1CCOC(=O)NC(Nc1ccc(Br)cc1)C(Cl)(Cl)Cl (configuration not stated)	0%
Cn1c(=O)c(Cl)c2c3c(c(Cl)ccc31)C(=O)c1ccccc1-2	3.03%
COC(=O)C[S+]([O-])c1ccccc1 (configuration not stated)	2.1%
COc1ccc(CC(=O)NCCCCNc2ccnc3cc(Cl)ccc23)cc1	1.87%
CCCC(=O)NC(c1cccc([N+](=O)[O-])c1)c1ccc2cccnc2c1O (configuration not stated)	11.9%
CCN1CCN(C(=O)Nc2ccc(Cc3ccc(NC(=O)N4CCN(CC)CC4)cc3)cc2)CC1	1.12%
Cc1ccc(-c2cc3c(nn2)-c2ccccc2C3=O)cc1	11.6%
OC(CNC1CCCCC1)Cn1c2ccc(Br)cc2c2cc(Br)ccc21 (configuration not stated)	5.3%
Nc1cc(C(=O)Nc2cccc(C3=NCCN3)c2)ccc1C(=O)Nc1cccc(C2=NCCN2)c1	2.68%
CCOc1ccc2[nH]c(=O)c(C(c3nnnn3CCOC)N3CCCC3)cc2c1 (configuration not stated)	0%
Oc1c(C(Nc2ccccn2)c2ccncc2)ccc2cccnc12 (configuration not stated)	15.4%
COc1cc(C(=O)NC(c2ccccc2Cl)c2cc(Cl)c3cccnc3c2O)cc(OC)c1OC (configuration not stated)	0%
c1ccc(CSc2nc3ccncc3[nH]2)cc1	0%
COC(=O)C(Nc1ccc(Cl)c(Cl)c1)(c1cc(C)c(O)c(C)c1)C(F)(F)F (configuration not stated)	0%
COc1cccc(CNCCCCCCCCCCCCNCc2cccc(OC)c2O)c1O	6.01%
COc1ccc(C2CC(=O)C3=C(C2)NC(C)=C(C(=O)OC2CCCCC2)C3c2cccc(C)c2)cc1OC (configuration not stated)	6.52%
CC1CCCCN1CCCNc1ncc(C(=O)NCc2ccccc2)c(NC2CCCC2)n1 (configuration not stated)	0.943%
Cc1ccnc(NC(c2ccc3ccccc3c2)c2ccc3cccnc3c2O)c1 (configuration not stated)	0%
CCOC(=O)c1c(NC(=O)c2cccnc2)sc(C)c1CC	0%
COC(=O)c1c(S(=O)(=O)NCc2cccc(Cl)c2)sc2c1CCN(C(=O)C1CCCO1)C2 (configuration not stated)	8.33%
CCN(CC)c1ccc(/C=C/c2ccc3ccc(OC)cc3[n+]2CC)cc1	17.1%
O=C(NCCc1ccccc1)c1cnc(NCCCn2ccnc2)nc1Nc1ccccc1	2.86%
CCc1n(C)c2ccccc2[n+]1CC(=O)c1ccc(Br)cc1	0%
O=C(c1ccncc1)N1N=C(C(F)(F)F)CC1(O)c1cccc([N+](=O)[O-])c1 (configuration not stated)	0%
Nc1nonc1-n1nnc(C(=O)NN=Cc2cccc(Cl)c2)c1-c1ccccc1	0%

SMILES	IFI
CCCCN(CCCC)CCCNc1ncnc2c1[nH]c1ccc(Cl)cc12	4.88%
COc1cncc(-c2cncc(-c3ccc(Oc4ccccc4)cc3)n2)c1	0%
COc1cccc(NC(=O)Cn2c(C)c(C#N)c3ccccc32)c1	0%
COc1ccccc1CNC(=O)CCC1N=C2c3ccccc3N=C(SCC(=O)Nc3ccc(F)cc3)N2C1=O (configuration not stated)	6.67%
Cc1c(C#N)c2ccccc2n1CC(=O)NCCc1ccccc1	0%
CCOC(=O)C1=C(CC)NC2=C(C(=O)CC(C)(C)C2)C1c1ccc(Br)cc1 (configuration not stated)	0%
COC(=O)c1c(-c2c(F)cccc2Cl)noc1/C=C/Nc1ccccc1	4%
O=C(Cn1ccc(=NCc2ccccc2)cc1)c1ccc(I)cc1	3.03%
CC1Cc2ccccc2N1C(=O)Cn1c(=O)oc2ccccc21 (configuration not stated)	0%
FC(F)(F)c1cccc(C=NNc2nc3ccccc3[nH]2)c1	0%
CCOC(=O)C1CSC(c2ccc(C(F)(F)F)cc2)N1C(=O)/C=C/c1ccccc1 (configuration not stated)	2.83%
COc1cncc(-c2cncc(-c3ccc(C)cc3)n2)c1	4.17%
CCN(CC)[P+](N(C)C[Si](C)(C)C)(N(CC)CC)N(CC)CC	9.09%
N#Cc1c(-c2ccccc2)cc(N2CCN(Cc3ccc(Cl)cc3)CC2)n2c1nc1ccccc12	7.5%
Cc1c(C(=O)N2CCC(C)CC2)sc2ncn(CC(=O)N3CCN(c4ccccn4)CC3)c(=O)c12	0%
Cc1ccc(C2(C)CC(C)(C)N(C(=O)Cc3ccccc3)c3ccc(C(c4ccccc4)(c4ccccc4)c4ccccc4)cc32)cc1 (configuration not stated)	0%
COc1ccccc1C(=O)Oc1ccccc1-c1nc2ccccn2c1NC(C)(C)CC(C)(C)C	3.77%
Cc1nc2c(C)cccc2c(O)c1CC=C(Cl)Cl	7.14%
COc1ccc(CCNc2nc(NCCCN3CCCCC3C)ncc2C(=O)NCC(C)C)cc1OC (configuration not stated)	2.86%
O=C(CCl)NCCOc1ccc(Cl)cc1Cl	7.69%
CN(CCCNc1ccnc2cc(Cl)ccc12)S(=O)(=O)c1ccc2ccccc2c1	10.2%
CCN1CCN(c2cc(C)c3cc(NC(=O)/C=C/c4sccc4C)ccc3n2)CC1	7.69%
